According to PubChem BioAssay AID1768 (National Center for Advancing Translational Sciences (NCATS), 2009):
Among all 270,000 compounds or so, about 620 (0.23%) were called active. Inconclusive means that the source gave no clear call. Such entries were picked first, then a sample of the others. Calls come from the whole dose curve; as a rule, active = well fitted inhibition curve with a large enough effect in the polarisation, with a control signal flat (not every such curve was filed as active); inconclusive = small, poorly fitted or top-dose-only effect, or effect the other way, or a change in a side signal; inactive = no such curve, though single readings can be large or run the other way; the % refers to the polarisation. Potencies beside an inconclusive call are fits to weak or partial responses and may not hold up. “Side channel” marks fits to a control or component signal instead of the main read-out.

Biological target: Menin (Homo sapiens) (UniProt O00255)
Experiment: qHTS Assay for Inhibitors Targeting the Menin-MLL Interaction in MLL Related Leukemias: Competition With Texas Red Labeled MLL-derived Mutant Peptide; for FP activity change, negative = inhibition: % of control where 0% means no effect
Details: fluorescence polarization; FP activity change, negative = inhibition: at 61.6 µM (top of the series)
Potency is the fitted concentration of half-maximal effect; tags give direction and shape of the fitted curve or compound fluorescence and quenching.

UniProt O00255, sequence (O00255 whole entry, looked up): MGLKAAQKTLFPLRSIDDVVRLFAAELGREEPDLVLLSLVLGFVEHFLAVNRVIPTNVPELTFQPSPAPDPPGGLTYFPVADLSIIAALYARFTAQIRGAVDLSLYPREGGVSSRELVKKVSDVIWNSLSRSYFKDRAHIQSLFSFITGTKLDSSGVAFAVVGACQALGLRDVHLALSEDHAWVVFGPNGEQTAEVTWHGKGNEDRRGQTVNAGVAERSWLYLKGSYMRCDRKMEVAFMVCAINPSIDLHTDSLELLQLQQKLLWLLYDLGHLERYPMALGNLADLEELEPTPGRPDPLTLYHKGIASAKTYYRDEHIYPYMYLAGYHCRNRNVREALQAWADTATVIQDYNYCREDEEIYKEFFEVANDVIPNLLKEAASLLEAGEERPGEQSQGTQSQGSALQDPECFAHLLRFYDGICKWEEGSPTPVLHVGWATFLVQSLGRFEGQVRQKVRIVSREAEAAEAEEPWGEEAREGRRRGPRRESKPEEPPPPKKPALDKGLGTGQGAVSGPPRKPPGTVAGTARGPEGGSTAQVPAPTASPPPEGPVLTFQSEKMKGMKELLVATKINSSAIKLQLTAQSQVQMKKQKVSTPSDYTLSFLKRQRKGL

| SMILES | Potency | FP activity change, negative = inhibition |
| --- | --- | --- |
| CCc1ccc(NC(=O)CCC(=O)Nc2nnc(C(C)C)s2)cc1 | inconclusive: 39.8 µM [fluorescent, side channel, single point] |  |
| OC1CCN(C(=S)Nc2ccc(Nc3ccccc3)cc2)CC1 |  | inactive: 7.6% |
| CCN1/C(=C/C=C/C=C/c2sc3ccccc3[n+]2CC)Sc2ccccc21 | inconclusive: 3.55 µM [fluorescent, side channel, full curve] |  |
| Cc1ccc(CNC(=O)CN2C(=O)COc3ccc(S(=O)(=O)N4CCC(C)CC4)cc32)o1 | inconclusive: 31.6 µM [fluorescent, partial curve] |  |
| O=C1C(Cc2cccc([N+](=O)[O-])c2)S/C(=N/N=C/c2ccco2)N1c1ccccc1 (configuration not stated) | inconclusive: 35.5 µM [quencher, side channel, single point] |  |
| COc1ccc(C2=NOC3(CC(=O)N(c4ccc5ccccc5c4)C3=O)C2)c(OC)c1 (configuration not stated) | inconclusive: 8.91 µM [inhibitor, partial curve] |  |
| O=C1CSC(=S)N1CC1CCCO1 (configuration not stated) | inconclusive: 31.6 µM [fluorescent, side channel, single point] |  |
| COc1ccc(C(C)=O)cc1CSC(=N)N | inconclusive: 15.8 µM [fluorescent, side channel, partial curve] |  |
| C/C(=C\C=C(C#N)C#N)c1cc(C#N)c(N)o1 | inconclusive: 22.4 µM [fluorescent, side channel, partial curve] |  |
| O=[N+]([O-])c1ccc(CNc2ccc(Cl)cc2)s1 | inconclusive: 22.4 µM [quencher, side channel, partial curve] |  |
| CCCCOc1ccc(-c2nnn(CC(=O)c3c[nH]c4ccccc34)n2)cc1 | active: 8.91 µM |  |
| COc1ccc(CCNC(=O)NC2CCCCC2)cc1OC | inconclusive: 5.62 µM [inhibitor, single point] |  |
| COc1cccc(/C=N/NC(=O)c2c(C)nc3ccc(Cl)cn23)c1O | inconclusive: 5.62 µM [quencher, side channel, partial curve] |  |
| O=c1[nH]c(=O)n(Cc2ccccc2)c2nc(-c3ccc(C(F)(F)F)cc3)n(CCO)c12 | inconclusive: 31.6 µM [fluorescent, side channel, partial curve] |  |
| Cc1ccc(S(=O)(=O)c2cc3c(=O)n4cccc(C)c4nc3n(Cc3ccco3)c2=N)cc1C | inconclusive: 7.94 µM [quencher, side channel, full curve, poor fit] |  |
| O=C(CN1C(=O)c2ccccc2C1=O)Nc1cccc([N+](=O)[O-])c1 | inconclusive: 7.94 µM [quencher, side channel, partial curve] |  |
| Cc1cccc(C)c1NC(=O)Cn1c(=O)n(CCCC(=O)NCc2ccco2)c(=O)c2sccc21 | inconclusive: 31.6 µM [fluorescent, side channel, single point] |  |
| C/C(=C(/CCOC(=O)C(C)C)SS/C(CCOC(=O)C(C)C)=C(\C)N(C=O)Cc1cnc(C)nc1N)N(C=O)Cc1cnc(C)nc1N |  | inactive: -9.1% |
| CC1CCCN(S(=O)(=O)c2ccc(NC(=O)c3cccc(-n4cnnn4)c3)cc2)C1 (configuration not stated) | inconclusive: 12.6 µM [quencher, side channel, partial curve] |  |

| SMILES | Potency | FP activity change, negative = inhibition |
| --- | --- | --- |
| Cc1cccc(NC(=O)Nc2ccccc2)n1 | inconclusive: 4.47 µM [inhibitor, full curve, poor fit] |  |
| Cc1cccc(NC(=O)Cn2c(O)c(N=NC(=O)c3ccncc3)c3ccccc32)c1 | inconclusive: 39.8 µM [quencher, side channel, single point] |  |
| Cc1sc2nc(-c3cccs3)oc(=O)c2c1C | inconclusive: 25.1 µM [inhibitor, single point] |  |
| Cc1ccccc1NC(=O)CN1CCOCC1 |  | inactive: 15.7% |
| FC(F)(F)c1cccc(-c2nc3nc(Cl)c(Cl)nc3[nH]2)c1 |  | inactive: 67.1% |
| O=C(N/N=C/c1cn(-c2ccccc2)nc1-c1ccc(F)cc1)c1ccc(Br)o1 | inconclusive: 22.4 µM [inhibitor, single point] |  |
| CC(=O)Nc1ccc(O)cc1[N+](=O)[O-] |  | inactive: 24.7% |
| Cc1ccc(-c2csc3ncnc(SCc4ccc(C(=O)O)cc4)c23)cc1 | inconclusive: 22.4 µM [quencher, side channel, partial curve] |  |
| CC(C)(C)OC(=O)NCCc1nnc(SCC(=O)Nc2cccc(Cl)c2)o1 |  | inactive: -16.2% |
| CCc1ccc(-c2nc(CN3CCC(C(=O)NCCc4ccc(OC)c(OC)c4)CC3)c(C)o2)cc1 | inconclusive: 8.91 µM [fluorescent, side channel, full curve] |  |
| O=C(c1ccc(CSCc2ccccc2F)o1)N1CCN(c2ccc(N3CCOCC3)nn2)CC1 | inconclusive: 35.5 µM [inhibitor, partial curve] |  |
| CCOc1ccc(CN(C)CC(=O)NCc2ccccc2Cl)cc1 |  | inactive: -9.13% |
| Cc1ccc(CN2CCCCC2C(=O)Nc2ccc(Oc3cccnc3)cc2)o1 (configuration not stated) | inconclusive: 6.31 µM [fluorescent, side channel, partial curve] |  |
| CC1CCN(S(=O)(=O)c2ccc3c(c2)oc(=O)n3CC(=O)NCc2ccc3c(c2)OCO3)CC1 | inconclusive: 25.1 µM [quencher, side channel, single point] |  |
| COc1ccc(OC)c(Nc2nc(N)nc(-c3cc4ccccc4o3)n2)c1 | inconclusive: 12.6 µM [quencher, side channel, partial curve] |  |
| Cc1cc2oc(=O)sc2cc1NS(=O)(=O)c1cccc2cccnc12 | inconclusive: 31.6 µM [quencher, side channel, single point] |  |
| Cc1cc(-c2csc(NC(=O)c3ccc(S(=O)(=O)N(C)C)cc3)n2)c(C)n1-c1ccccc1 | inconclusive: 25.1 µM [quencher, side channel, single point] |  |
| CC(Oc1ccc(Br)cc1)c1nc2c3ccccc3nc(=S)n2[nH]1 (configuration not stated) | inconclusive: 25.1 µM [quencher, single point] |  |
| CC(C)c1ccc(C(=O)CSc2n[nH]c(-c3ccncc3)n2)cc1 | inconclusive: 35.5 µM [quencher, side channel, single point] |  |

| SMILES | Potency | FP activity change, negative = inhibition |
| --- | --- | --- |
| CNC(=O)c1csc(-c2ccncc2)n1 |  | inactive: 0.469% |
| O=C(Cn1nc(-c2ccccc2)ccc1=O)Nc1ccc(NC(=O)c2ccccn2)cc1 | inconclusive: 25.1 µM [fluorescent, side channel, partial curve] |  |
| CCOCCCNC(=O)c1ccc(NC(=O)C2CCCO2)cc1 (configuration not stated) | inconclusive: 25.1 µM [inhibitor, partial curve] |  |
| O=c1[nH]c(Nc2ccc3c(c2)OCCO3)nnc1Cc1ccccc1 | inconclusive: 35.5 µM [quencher, side channel, single point] |  |
| O=C(O)C1CCCCC1C(=O)Nc1nc(-c2ccc(Cl)s2)cs1 (configuration not stated) | inconclusive: 22.4 µM [quencher, side channel, partial curve] |  |
| CN(C)S(=O)(=O)Oc1ccc(C(=O)Nc2cccc(C(F)(F)F)c2)cc1 | inconclusive: 10 µM [quencher, side channel, partial curve] |  |
| Cn1cc(C2CC(c3ccccc3)=NN2C(=O)c2ccccc2)c2ccccc21 (configuration not stated) | inconclusive: 3.55 µM [fluorescent, side channel, single point] |  |
| Cc1ccccc1Cn1c(O)c(N=NC(=S)Nc2ccccc2F)c2ccccc21 | inconclusive: 12.6 µM [quencher, side channel, partial curve] |  |
| COc1ccccc1-n1c(=O)c(C#N)c(-c2ccc([N+](=O)[O-])cc2)c2cc(C(=O)c3cc(F)ccc3O)cnc21 | inconclusive: 12.6 µM [quencher, side channel, partial curve] |  |
| COc1ccc(Cl)cc1NC(=O)CCc1nc(-c2ccccc2F)no1 | inconclusive: 39.8 µM [quencher, side channel, single point] |  |
| CCOc1ccc(N(CC(=O)Nc2cccc(Br)c2)S(C)(=O)=O)cc1 | inconclusive: 14.1 µM [quencher, side channel, partial curve] |  |
| Cc1cccc(C)c1OCC(=O)Nc1ccncc1 | inconclusive: 1 µM [inhibitor, full curve, poor fit] |  |
| Cc1ccc(C)c(OCc2cc(C(=O)N3CCN(c4ccccc4C)CC3C)no2)c1 (configuration not stated) | inconclusive: 8.91 µM [fluorescent, side channel, partial curve] |  |
| O=C1C(=O)c2ccccc2C(O)=C1C1CCC(c2ccc(Cl)cc2)CC1 (configuration not stated) | inconclusive: 10 µM [quencher, side channel, partial curve] |  |
| Cc1ccc(CN=C(N)Nc2nc(C)cc(C)n2)cc1 | inconclusive: 12.6 µM [fluorescent, side channel, partial curve] |  |
| Cc1c(C(=O)N2CCN(c3ccccc3)CC2)sc2ncnc(N3CCC(C)CC3)c12 | inconclusive: 35.5 µM [fluorescent, side channel, partial curve] |  |
| Cc1cc(-c2ccco2)c(C#N)c2nc3ccccc3n12 | inconclusive: 12.6 µM [quencher, side channel, partial curve] |  |
| Cc1ccc(-n2nnnc2SCC(=O)Nc2cc(C)on2)c(C)c1 | inconclusive: 35.5 µM [fluorescent, side channel, single point] |  |
| CCCCNC(=O)C(c1ccc(OCC(=O)OC)c(C(=O)OC)c1)N(CCc1ccccn1)C(=O)CCCCCN1C(=O)NC(c2ccc(-c3ccccc3)cc2)C(C(=O)OCc2ccccc2)=C1C (configuration not stated) | inconclusive: 8.91 µM [inhibitor, partial curve] |  |
